# Results as given in PubChem BioAssay (NCATS).
# Where “and” joins values, the source holds several entries; their conditions need not be identical. Equal entries are not always repeated. Inconclusive results, whose numbers are uncertain, are shown with a selection of clear calls. For some assays here: Where the call is inconclusive, the potency comes from a doubtful curve fit. For some assays here: “Side channel” marks fits to a control or component signal instead of the main read-out. Calls of active or inactive are those of the source. Unless noted, the call rests on the fitted dose curve; in most records, active means well fitted curve in the direction sought with a large enough effect; inconclusive means small, poorly fitted or top-dose-only effect, or another doubt; inactive means no such curve, though single readings can be large; an effect the other way counts as inactive or inconclusive.
# Tests used:
# [1] = molecular target: Vitamin D3 receptor (Homo sapiens) (UniProt P11473); experiment: qHTS assay for small molecule antagonists of vitamin D receptor signaling (AID 588541; calls by dose curve; further: potency means the concentration at half of the fitted maximal effect); conditions: HEK293T VDR-UAS-bla, beta-lactamase ratio, antagonist mode; activity change, negative = inhibition: at 76.7 µM (top of the series)
# [2] = molecular target: Vitamin D3 receptor (Homo sapiens) (UniProt P11473); experiment: qHTS assay for small molecule agonists of vitamin D receptor signaling (AID 588543; calls by dose curve;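 further: 0% = DMSO basal and 100% = reference agonist control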); conditions: HEK293T VDR-UAS-bla, beta-lactamase ratio, 16 h; series mostly up to 76.8 µM
# Method in brief: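 Reporter cells (HEK293T, VDR-UAS-bla) were seeded in medium with 2% charcoal-stripped serum and incubated 5 h, then compounds in concentration series were added for 16 h at 37 °C. Stimulation was scaled between DMSO basal and 50 nM 1α,25-dihydroxyvitamin D3.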
# [3] = qHTS assay for cell viability of HEK293 cells (AID 743288); conditions: ATP luminescence (CellTiter-Glo), 18 h; max response: active compounds read low; further: on the % scale 0 is the no-effect control and ±100 the full control effect; nearly all actives have a fitted effect of over 50% in size
# Method in brief: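 HEK293 parental, 2,000 cells/well; ≥5 h pre-incubation 37 C; pintool compound addition; 18 h, 37 C; CellTiter-Glo 30 min RT; luminescence read.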
# [4] = Cell Viability - N2a (AID 540); conditions: N2a mouse neuroblastoma cell viability; at 92.2 µM (top of the series);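 further: plate controls were DMSO alone for no effect and tamoxifen control for full effect; nearly all actives have a fitted effect of over 45% in size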
# Method in brief: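 Mouse neuroblastoma N2a cells, 1500/well, exposed to compounds 40 h at 37 °C in complete medium. Viability measured as cellular ATP by CellTiter-Glo luminescence; AC50 from Hill fits of concentration-response.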
# [5] = Cell Viability - NIH 3T3 (AID 541); conditions: NIH 3T3 cell viability, qHTS; at 92.2 µM (top of the series);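 further: plate controls were DMSO alone for no effect and tamoxifen positive control for full effect; nearly all actives have a fitted effect of over 25% in size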
# Method in brief: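 Mouse NIH 3T3 fibroblasts, 1000 cells/well, rested 5 hr at 37 °C, then exposed to compound for 40 hr at 37 °C in complete medium. Viability read as intracellular ATP by CellTiter-Glo luminescence; AC50 from Hill-equation fits of concentration-response data.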
# [6] = Cell Viability - Mesenchymal (AID 546); conditions: mesenchymal cells viability, qHTS; activity change, negative = cytotoxicity: at 91.7 µM (top of the series);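 further: cells exposed to compound for 40 hours before reading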
# Method in brief: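 Normal human renal glomerulus-derived kidney mesenchymal cells, 1000 per well in complete medium, were treated with compounds for 40 hr at 37 °C. Viability was read as intracellular ATP by CellTiter-Glo luminescence; AC50 values came from Hill-equation fits of qHTS concentration-response data.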
# [7] = Cell Viability - LYMP1-003 - Assay at 40 hr (AID 964); conditions: LYMP1-003 lymphoblastoid viability; further: potency means the concentration at half of the fitted maximal effect; nearly all actives have a fitted effect of over 60% in size
# Method in brief: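 LYMP1-003 human lymphoblastoid cells, 2500/well, preincubated 5 h at 37 C, then treated with compound for 40 h at 37 C. Intracellular ATP read by CellTiter-Glo luminescence after 30 min at room temperature; AC50 from Hill-equation fits.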
# [8] = Cell Viability - LYMP2-004 (AID 966); conditions: LYMP2-004 lymphoblastoid cell viability, qHTS; series mostly up to 92.2 µM; further: potency means the concentration at half of the fitted maximal effect; nearly all actives have a fitted effect of over 65% in size
# Method in brief: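 Lymphoblastoid LYMP2-004 cells, 2500 per well, were preincubated for 5 hr and then treated with compound for 24 h at 37 C in complete medium. Viability was read as cellular ATP by CellTiter-Glo luminescence, and AC50 values were taken from Hill fits to concentration-response data.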
# [9] = Cell Viability - LYMP2-016 (AID 984); conditions: LYMP2-016 lymphoblastoid cell viability, qHTS; series mostly up to 92.2 µM;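 further: cells exposed to compound for 24 hours at 37 °C; on the % scale 0 is the no-effect control and ±100 the full control effect; nearly all actives have a fitted effect of over 55% in size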
# Method in brief: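 Cells were seeded at 2500 per well and rested 5 hr before a 24 hr compound exposure at 37 C. Viability was then gauged as cellular ATP by luciferase luminescence, with AC50 values fitted to the Hill equation.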
# [10] = molecular target: Peroxisome proliferator-activated receptor gamma (Homo sapiens) (UniProt P37231); experiment: qHTS assay for small molecule agonists of peroxisome proliferator-activated receptor gamma signaling (AID 588536; active means well fitted curve in the direction sought with a large enough effect in the signal ratio, with a control signal flat, not every such curve was filed as active; inconclusive means small, poorly fitted or top-dose-only effect, or effect the other way, or a change in a side signal; inactive means no such curve, though single readings can be large or run the other way; the % refers to the signal ratio;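 further: 0% = DMSO basal wells and 100% = rosiglitazone at 2 µM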); conditions: HEK293 PPARg-UAS-bla, beta-lactamase ratio, 16 h; activation: at 76.7 µM (top of the series), percent of rosiglitazone response, DMSO as zero
# Method in brief: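 Ratiometric blue/green fluorescence (405 nm excitation; 460 and 530 nm emission) from CCF4-loaded HEK293 reporter cells serves as signal. Exposure to test compounds lasts 16 h at 37 C in medium containing 1% charcoal/dextran-treated serum.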
# [11] = molecular target: Thyroid hormone receptor beta (Homo sapiens) (UniProt P10828); experiment: qHTS assay for small molecule agonists of thyroid hormone receptor beta signaling (AID 588545; calls by dose curve); conditions: TR-UAS-bla GripTite HEK 293, beta-lactamase ratio, agonist mode, 18 h; activation: at 76.7 µM, percent of T3 response, DMSO as zero
# UniProt P10828, sequence (P10828 whole entry, looked up): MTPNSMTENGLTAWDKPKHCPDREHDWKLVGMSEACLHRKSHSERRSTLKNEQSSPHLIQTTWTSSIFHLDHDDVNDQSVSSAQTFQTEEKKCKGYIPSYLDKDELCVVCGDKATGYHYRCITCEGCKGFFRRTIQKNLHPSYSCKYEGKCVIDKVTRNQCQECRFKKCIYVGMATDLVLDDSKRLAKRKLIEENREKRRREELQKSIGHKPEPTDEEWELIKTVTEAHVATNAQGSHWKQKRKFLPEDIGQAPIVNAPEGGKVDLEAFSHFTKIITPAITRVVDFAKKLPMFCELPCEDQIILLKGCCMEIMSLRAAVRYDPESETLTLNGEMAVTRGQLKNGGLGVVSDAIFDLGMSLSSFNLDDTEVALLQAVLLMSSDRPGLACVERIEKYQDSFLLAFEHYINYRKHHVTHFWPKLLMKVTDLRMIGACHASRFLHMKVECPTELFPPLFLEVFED
# Method in brief: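 Agonist activity was read as beta-lactamase CCF4 fluorescence (405 ex, 460/530 em), scaled between DMSO (0%) and 10 nM T3 (100%), then Hill-fitted for EC50 and efficacy. HEK 293 TR-UAS-bla cells in 2% charcoal/dextran FBS medium were exposed 18 h at 37 C.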
# [12] = qHTS assay for small molecule activators of the p53 signaling pathway (AID 651743; active means well fitted activation curve with a large enough effect in the signal ratio, not every such curve was filed as active; inconclusive means small, poorly fitted or top-dose-only effect, or a change in a side signal; the % refers to the signal ratio; further: % of control where 0% means no effect); conditions: HCT-116 p53RE-bla, beta-lactamase FRET ratio, 16 h; activation: active compounds read high
# Method in brief: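 Cell-based beta-lactamase reporter (p53 response elements, HCT-116 background). After a 5-hour preincubation, cells received compound for 16 hours at 37 C; substrate development ran 2 hours at room temperature.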
# [13] = molecular target: Nuclear receptor ROR-gamma (Homo sapiens) (UniProt P51449); experiment: qHTS assay for small molecule antagonists of the retinoid-related orphan receptor gamma (ROR-gamma) signaling pathway (AID 651802); conditions: ROR-gamma antagonist cell reporter assay; series mostly up to 92.2 µM; further: potency means the concentration at half of the fitted maximal effect; nearly all actives have a fitted effect of over 60% in size
# UniProt P51449, sequence (P51449 whole entry, looked up): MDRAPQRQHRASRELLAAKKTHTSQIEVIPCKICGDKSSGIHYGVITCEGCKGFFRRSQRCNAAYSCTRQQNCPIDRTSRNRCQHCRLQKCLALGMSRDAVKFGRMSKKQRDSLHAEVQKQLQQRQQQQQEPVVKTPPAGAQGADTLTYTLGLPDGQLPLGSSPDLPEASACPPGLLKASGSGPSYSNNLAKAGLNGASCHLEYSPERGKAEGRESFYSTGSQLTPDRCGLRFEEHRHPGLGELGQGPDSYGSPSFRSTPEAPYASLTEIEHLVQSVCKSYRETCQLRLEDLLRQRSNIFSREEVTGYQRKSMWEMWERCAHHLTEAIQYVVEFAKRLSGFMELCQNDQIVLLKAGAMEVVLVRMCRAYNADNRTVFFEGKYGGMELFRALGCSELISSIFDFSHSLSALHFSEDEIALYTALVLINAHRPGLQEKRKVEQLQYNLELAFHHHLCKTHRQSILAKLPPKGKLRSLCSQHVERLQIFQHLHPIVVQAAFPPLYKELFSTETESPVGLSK
# Method in brief: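 CHO cells with TET-inducible ROR-gamma and RORE-luciferase reporter, dosed then doxycycline-induced. After 16 h at 37C, One-Glo luminescence read; decreased signal indicates antagonism.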
# [14] = qHTS assay for small molecule antagonists of the retinoid-related orphan receptor gamma (ROR-gamma) signaling pathway - cell viability counter screen (AID 720652; active means well fitted curve in the direction sought with a large enough effect in the repeat runs; inconclusive means weak or mixed curves; inactive means no such curve, though single readings can be large; an effect the other way counts as inactive or inconclusive;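 further: potency means the concentration at half of the fitted maximal effect; compound exposure lasted 16 hr before ATP read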); conditions: RORgamma reporter cell line viability counter screen; series mostly up to 92.2 µM
# Method in brief: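 CHO cells carrying TET-inducible ROR and RORE-luciferase reporter, plated 5 hr, then dosed with compound plus doxycycline. After 16 hr at 37 C, viability read as intracellular ATP by CellTiter-Glo luminescence.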
# [15] = Cellular Toxicity (caspase-3) Hek293 (AID 664); conditions: HEK293 caspase-3 activation; caspase-3 activation: at 92.2 µM (top of the series), DMSO = 0%, 100 µM tamoxifen = 100%;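 further: cells exposed to compound for 16 h at 37 °C before readout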
# Method in brief: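 HEK293 cells in complete medium treated 16 h at 37 °C, then Caspase-Glo 3/7 luminescence read after 20 min at room temperature. Normalized to DMSO and 100 uM tamoxifen; AC50 from Hill fit of concentration-response.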
# [16] = molecular target: Glucocorticoid receptor (Homo sapiens) (UniProt P04150); experiment: qHTS assay for small molecule agonists of glucocorticoid receptor signaling (AID 588532; active means well fitted curve in the direction sought with a large enough effect in the signal ratio, with a control signal flat; inconclusive means small, poorly fitted or top-dose-only effect, or a change in a side signal; inactive means no such curve, though single readings can be large or run the other way; the % refers to the signal ratio;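 further: 100% = dexamethasone at 0.1 µM and 0% = DMSO only wells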); conditions: HeLa MMTV-bla, beta-lactamase ratio, agonist, 18 h; activation: active compounds read high, percent of dexamethasone control, DMSO zero
# UniProt P04150, sequence (P04150 whole entry, looked up): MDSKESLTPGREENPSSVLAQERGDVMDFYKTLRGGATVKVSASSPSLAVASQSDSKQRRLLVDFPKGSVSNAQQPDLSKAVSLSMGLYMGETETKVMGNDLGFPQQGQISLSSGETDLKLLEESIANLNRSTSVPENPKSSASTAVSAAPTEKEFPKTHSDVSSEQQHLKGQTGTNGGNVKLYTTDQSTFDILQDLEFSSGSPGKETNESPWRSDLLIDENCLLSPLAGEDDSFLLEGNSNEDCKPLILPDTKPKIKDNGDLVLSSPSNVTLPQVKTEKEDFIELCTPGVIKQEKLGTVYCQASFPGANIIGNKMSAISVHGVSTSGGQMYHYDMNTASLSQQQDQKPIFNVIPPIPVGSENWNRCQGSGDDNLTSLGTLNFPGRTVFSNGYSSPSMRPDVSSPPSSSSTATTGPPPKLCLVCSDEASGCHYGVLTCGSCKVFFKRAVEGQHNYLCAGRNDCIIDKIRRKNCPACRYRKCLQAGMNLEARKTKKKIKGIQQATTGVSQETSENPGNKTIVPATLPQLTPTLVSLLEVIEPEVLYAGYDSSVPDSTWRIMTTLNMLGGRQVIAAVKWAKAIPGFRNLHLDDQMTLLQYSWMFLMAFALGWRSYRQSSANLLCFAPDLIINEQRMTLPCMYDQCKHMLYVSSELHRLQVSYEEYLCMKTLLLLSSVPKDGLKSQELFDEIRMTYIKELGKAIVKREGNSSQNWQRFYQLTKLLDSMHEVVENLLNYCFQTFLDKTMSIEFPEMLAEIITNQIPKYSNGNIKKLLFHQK
# Method in brief: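 MMTV-bla HeLa, beta-lactamase reporter; medium with 1% charcoal/dextran-stripped FBS; cpds up to 92 uM, 18 h, 37 C; CCF4 readout 460/530 nm; Hill fit → EC50, efficacy vs 0.1 uM dexamethasone = 100%.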
# [17] = molecular target: Retinoic acid receptor RXR-alpha (Homo sapiens) (UniProt P19793); experiment: qHTS assay for small molecule antagonists of retinoid X receptor alpha signaling (AID 588546; active means well fitted inhibition curve with a large enough effect in the signal ratio, with a control signal flat, not every such curve was filed as active; inconclusive means small, poorly fitted or top-dose-only effect, or effect the other way, or a change in a side signal; inactive means no such curve, though single readings can be large or run the other way; the % refers to the signal ratio;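 further: cells stimulated with 9-cis-retinoic acid as agonist; on the % scale 0 is the no-effect control and ±100 the full control effect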); conditions: HEK293T RXRa-UAS-bla, beta-lactamase ratio, antagonist mode
# UniProt P19793, sequence (P19793 whole entry, looked up): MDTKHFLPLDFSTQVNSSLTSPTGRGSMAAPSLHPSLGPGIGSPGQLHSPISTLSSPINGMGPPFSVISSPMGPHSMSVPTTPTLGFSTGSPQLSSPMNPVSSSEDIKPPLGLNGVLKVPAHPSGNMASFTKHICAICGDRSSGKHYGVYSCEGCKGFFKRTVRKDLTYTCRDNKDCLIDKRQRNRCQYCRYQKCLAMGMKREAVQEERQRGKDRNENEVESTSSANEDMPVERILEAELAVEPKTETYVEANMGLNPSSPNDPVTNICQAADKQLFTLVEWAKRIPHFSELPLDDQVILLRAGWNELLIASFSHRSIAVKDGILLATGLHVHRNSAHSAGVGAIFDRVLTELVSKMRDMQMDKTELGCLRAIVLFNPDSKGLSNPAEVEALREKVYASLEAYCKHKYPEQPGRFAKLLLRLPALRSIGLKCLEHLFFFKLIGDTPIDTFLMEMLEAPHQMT
# Method in brief: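 Beta-lactamase reporter inhibition, read as CCF4 fluorescence ratio (ex 405, em 460/530 nm) after 2 h at RT. HEK293T UAS-bla cells, 2500/well, were stimulated with 9-cis-RA at 500 or 100 nM final alongside test compound for 18 h at 37 C.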
# [18] = qHTS assay for small molecule activators of the nuclear factor-kappa B (NF-kB) signaling pathway (AID 651749; active means well fitted activation curve with a large enough effect in the signal ratio; inconclusive means small, poorly fitted or top-dose-only effect, or a change in a side signal; the % refers to the signal ratio; further: potency means the concentration at half of the fitted maximal effect); conditions: NF-kB-bla ME-180 cells, beta-lactamase FRET ratio, 16 h
# Method in brief: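 Screening used 2,000 ME-180 reporter cells per well exposed to pinned compound (23 nL) or DMSO; after 16 hr at 37C, beta-lactamase expression under NF-kB control was assessed through FRET.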
# [19] = molecular target: Peroxisome proliferator-activated receptor alpha (Homo sapiens) (UniProt Q07869); experiment: qHTS assay for small molecule agonists of the peroxisome proliferator-activated receptor alpha (PPARalpha) signaling pathway (AID 651778); conditions: PathHunter PPARalpha complementation, chemiluminescence, 6 h; further: potency means the concentration at half of the fitted maximal effect
# UniProt Q07869, sequence (Q07869 whole entry, looked up): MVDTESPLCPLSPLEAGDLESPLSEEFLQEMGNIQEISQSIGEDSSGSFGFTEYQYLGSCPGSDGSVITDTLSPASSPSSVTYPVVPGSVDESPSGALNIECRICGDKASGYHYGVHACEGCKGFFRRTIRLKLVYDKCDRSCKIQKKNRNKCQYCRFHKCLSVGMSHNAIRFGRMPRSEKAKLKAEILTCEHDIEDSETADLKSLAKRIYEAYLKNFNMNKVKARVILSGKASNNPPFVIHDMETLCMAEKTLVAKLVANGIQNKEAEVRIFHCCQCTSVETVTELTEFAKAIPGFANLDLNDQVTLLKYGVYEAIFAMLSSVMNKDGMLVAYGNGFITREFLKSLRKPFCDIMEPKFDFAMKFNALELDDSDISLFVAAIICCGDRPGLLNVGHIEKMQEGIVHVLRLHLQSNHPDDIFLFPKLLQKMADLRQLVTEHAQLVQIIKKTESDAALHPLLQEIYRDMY
# Method in brief: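 Cells plated at 2,000/well and held overnight at 37 C, 5% CO2, then compound added by pin tool for 6 hr; after PathHunter detection reagent and 60 min at room temperature, chemiluminescence from enzyme complementation was read.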
# [20] = Quantitative High-Throughput drug screen in 47 multiple myeloma cell lines against the NCATS MIPE library collection: Delta47_JCRB cell viability assay (AID 1918925; further: potency means the concentration at half of the fitted maximal effect; nearly all actives have a fitted effect of over 45% in size); conditions: Delta47 myeloma viability, CellTiter-Glo ATP, 48 h; series mostly up to 45.8 µM
# Method in brief: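 Myeloma cell lines, 500 cells per well, exposed to MIPE 4.0 library compounds for 48 h at 37C, 5% CO2. Viability from ATP by CellTiter-Glo luminescence; normalised to DMSO (100%) and media-only (0%) wells.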
# Tags describe the fitted curve by direction and shape.
smiles,measurement,setting,value
C#C[C@]1(O)CC[C@H]2[C@@H]3CCC4=Cc5oncc5C[C@]4(C)[C@H]3CC[C@@]21C,Potency,[1],"inconclusive: 20 µM [activator, full curve, poor fit]"
same,Potency,[2],inactive
same,max response,[3],inactive: -10.7%
CCCCCCc1ccc(O)cc1O,"activity change, negative = cytotoxicity",[4],inconclusive: -32.8%
same,"activity change, negative = cytotoxicity",[5],inconclusive: -36.7%
same,Potency,[6],inactive
same,Potency,[7],"inconclusive: 79.4 µM [cytotoxic, partial curve, poor fit]"
same,Potency,[8],"inconclusive: 0.0316 µM [cytotoxic, full curve, poor fit]"
same,Potency,[9],inactive
same,activation,[10],inconclusive: -11.4%
same,activation,[11],inactive: -10.8% and inactive: -5.56%
same,activation,[12],inactive: 7.68% and inactive: 3.42%
same,Potency,[13],"inconclusive: 59.6 µM [inhibitor, partial curve, poor fit]"
same,Potency,[14],"inconclusive: 75 µM [cytotoxic, single point]"
Cc1cc(C(C)(C)C)c(O)c(C(C)(C)C)c1,caspase-3 activation,[15],inconclusive: 38.1%
same,activation,[16],inactive: -5.33% and inactive: 4.56%
same,max response,[17],inconclusive: -25.8% and inconclusive: -63.9%
same,Potency,[18],"inconclusive: 39.8 µM [side channel, falling, partial curve, poor fit]"
same,Potency,[19],"inconclusive: 39.8 µM [activator, partial curve]"
CCS(=O)(=O)N1CC(CC#N)(n2cc(-c3ncnc4[nH]ccc34)cn2)C1,Potency,[20],"inconclusive: 2.09 µM [cytotoxic, full curve, poor fit]"
